Whole data set: some 33,000 sequences, median “E-score (-0.5 to 0.5)” near -0.041, cut for the highest 2% near 0.37. The list shows a part of the results.
Target: T1, Ecm22 (UniProt Q05958)
T1 sequence: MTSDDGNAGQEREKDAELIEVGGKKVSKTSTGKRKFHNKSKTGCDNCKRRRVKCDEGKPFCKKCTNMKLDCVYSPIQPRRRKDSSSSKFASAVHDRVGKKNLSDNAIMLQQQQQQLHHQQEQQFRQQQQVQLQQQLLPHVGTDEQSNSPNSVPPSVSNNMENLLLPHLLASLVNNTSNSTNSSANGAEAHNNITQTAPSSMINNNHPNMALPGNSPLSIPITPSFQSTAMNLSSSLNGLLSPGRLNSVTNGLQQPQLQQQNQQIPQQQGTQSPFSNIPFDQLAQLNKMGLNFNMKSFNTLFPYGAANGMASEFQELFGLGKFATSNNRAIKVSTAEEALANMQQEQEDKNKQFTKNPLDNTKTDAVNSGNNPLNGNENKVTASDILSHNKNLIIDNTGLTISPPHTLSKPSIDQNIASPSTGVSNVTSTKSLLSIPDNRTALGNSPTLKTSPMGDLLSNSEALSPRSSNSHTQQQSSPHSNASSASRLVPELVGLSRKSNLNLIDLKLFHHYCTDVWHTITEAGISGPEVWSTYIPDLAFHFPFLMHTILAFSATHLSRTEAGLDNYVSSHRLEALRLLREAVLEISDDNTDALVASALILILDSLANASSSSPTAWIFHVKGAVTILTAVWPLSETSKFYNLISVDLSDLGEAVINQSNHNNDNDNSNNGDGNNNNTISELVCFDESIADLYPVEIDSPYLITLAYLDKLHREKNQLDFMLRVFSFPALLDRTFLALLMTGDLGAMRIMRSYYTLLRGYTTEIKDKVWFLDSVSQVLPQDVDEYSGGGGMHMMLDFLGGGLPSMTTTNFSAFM
Experiment: PBM E-score (8-mer binding enrichment) (E-score (-0.5 to 0.5)); higher = stronger / more preferred TF binding; most listed sequences are background and not binding sites
Settings: protein concentration: 200 nM; construct: GST-full length
In short: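 Universal all-10-mer Agilent arrays, fresh or stripped once, were converted to double-stranded form by primer extension. GST-tagged yeast transcription factors from PURExpress in vitro transcription/translation, full-length or DNA-binding domain only, were applied at about 100-200 nM and detected with fluorescent anti-GST. After masliner normalisation, the Universal PBM Analysis Suite scored each ungapped eight-base word together with its reverse complement by E-score.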

Row | Sequence | PBM E-score
1 | AATCGGTC | 0.144
2 | ATCGTAAG | 0.308
3 | CCCGCGAA | 0.0102
4 | CGTGCATC | -0.0497
5 | AGTAAAAC | 0.117
6 | ACTGCCGC | -0.118
7 | GAAGATCC | -0.189
8 | CAGCTAGA | -0.0476
9 | AACGTTTG | 0.137
10 | CATAGAAC | -0.0306
11 | GTGCTCTA | -0.142
12 | AGATAACA | -0.128
13 | ATGCAGAC | -0.0112
14 | TCAGGCAA | -0.109
15 | CCCATGAA | -0.177
16 | CTTCCAAA | -0.164
17 | CGGAGCTC | -0.157
18 | CCTTTTAC | -0.0016
19 | AACAAATG | 0.12
20 | GGACATAC | 0.176
21 | ACTTAGAT | 0.0719
22 | CGTTTGCA | 0.354
23 | CAATGCTA | -0.136
24 | CCGCTCGC | 0.186
25 | AGGCCAAA | -0.151

Row | Sequence | PBM E-score
26 | CAAGGAAC | 0.249
27 | CTGTCGAA | -0.00303
28 | AGTGATAA | -0.166
29 | AAAGCAAG | 0.0938
30 | GCTTAAGA | 0.0878
31 | AAGATTCG | 0.193
32 | AGCTAACG | 0.0855
33 | CTCAAGGA | -0.308
34 | AAGCGCTG | -0.0362
35 | ACCCATAG | -0.161
36 | TCAGCCGA | 0.00199
37 | AAGACCTC | -0.2
38 | GCAGGACA | -0.0743
39 | CTGTTACA | -0.15
40 | CCTCGCTA | 0.215
41 | ATATAAGA | 0.0784
42 | AAATAAGA | -0.0512
43 | ACCCGTTA | 0.239
44 | GAAACCAA | -0.0549
45 | AAGCGCGC | 0.223
46 | ACGTGCTG | 0.0683
47 | CCGAGTTC | 0.206
48 | TCCGGGCA | 0.138
49 | ATAGGGCC | -0.173
50 | TCCTAGAA | -0.115

Row | Sequence | PBM E-score
51 | CCTCGATC | 0.0936
52 | CGATACGC | 0.2
53 | AGTGTTCA | -0.248
54 | CTGTGCCC | -0.213
55 | GAGGAGAC | -0.0502
56 | ACCCGTCC | -0.336
57 | CCTTTAGC | -0.073
58 | CATACCGC | -0.0365
59 | GCCTCCAC | -0.192
60 | AGCTCGTG | 0.182
61 | ACCGATCC | -0.0178
62 | AAACGTTT | 0.328
63 | CTGCACGA | 0.0961
64 | TGGGGGAA | -0.152
65 | GTCACCAA | -0.232
66 | AATGGGGA | -0.15
67 | ACGCGCTG | -0.0321
68 | CCACGGTA | -0.146
69 | GACACAAC | -0.157
70 | GCATATGA | 0.0806
71 | AAACAGTA | 0.0907
72 | AATGGGCG | 0.0232
73 | AAGAGTTA | -0.162
74 | CGAGCCTA | 0.0933
75 | ATGTTTTA | -0.0842

Row | Sequence | PBM E-score
76 | AGCATCTG | -0.0174
77 | TAACCTGA | -0.106
78 | AGAGAGCC | -0.152
79 | ACGAATCC | 0.319
80 | CTTTTATA | -0.0606
81 | TACAACCA | 0.0482
82 | AGCTCTCC | -0.11
83 | CCGCAGTC | 0.0772
84 | CCTTACAG | -0.129
85 | ACGGACGA | 0.171
86 | TTGATCAA | 0.211
87 | CCAAGCCC | -0.117
88 | CAGTAACA | -0.107
89 | GTTGCGGA | 0.129
90 | GTGGGATA | 0.0634
91 | ATCAGTGG | -0.221
92 | ACATTGGG | -0.136
93 | TACTTAGA | -0.0709
94 | AGAGGGCC | -0.0916
95 | AAATTGGG | -0.058
96 | ATTCTACA | 0.0155
97 | ACCAGGCA | -0.226
98 | CTAACGCC | -0.00716
99 | AATATGGC | -0.0366
100 | AGTGCACA | 0.0795

Row | Sequence | PBM E-score
101 | CAAAATGC | 0.0177
102 | AGCCTGTC | 0.0499
103 | AGGGTTAT | -0.0839
104 | GCTATGTA | -0.0962
105 | CCATGAGA | -0.118
106 | ATGCGCCC | -0.0414
107 | AGCTGGAG | -0.0565
108 | ATCGTTTA | 0.483
109 | CGTTGGGA | -0.0369
110 | ATGAAGGG | -0.107
111 | GACAGTAA | -0.0178
112 | TGAATAAA | -0.0615
113 | GCCAGACC | -0.171
114 | CTACGGAG | -0.0418
115 | CGGGATAG | 0.0594
116 | AGGGCTTG | -0.105
117 | CAAGCTAC | -0.0798
118 | CGCCGAAG | -0.0988
119 | ACCACTGG | -0.142
120 | ACTGCAAT | -0.047
121 | GCCCAGGC | -0.235
122 | AGCAGCAG | -0.0665
123 | ACTCGCGA | 0.287
124 | GACGCGCC | 0.219
125 | CGACCACA | 0.12

Row | Sequence | PBM E-score
126 | ACAATTCC | -0.298
127 | ACAACGAA | 0.257
128 | AGGGGGCA | -0.324
129 | AAGAAACT | -0.108
130 | CGATCCCA | 0.0456
131 | ATCTGTTA | -0.11
132 | GTGGTATA | 0.0154
133 | CAAAATGA | -0.138
134 | ATTATGGC | -0.251
135 | AACATAAT | 0.0914
136 | CCTTATCC | -0.225
137 | ACGAGCAA | 0.288
138 | CCCCCTGA | -0.285
139 | CAATGAAC | 0.0859
140 | ACACCACG | -0.0976
141 | AGATCCTC | 0.0746
142 | CAATTTTC | 0.106
143 | CTATCGTA | 0.406
144 | ACCATGAG | -0.073
145 | AGTTAACT | -0.251
146 | CATGTCAA | -0.144
147 | CCAAAGCG | -0.0926
148 | ATATTGGG | -0.0204
149 | GAATCAGC | -0.27
150 | AATGACCC | -0.0567

Row | Sequence | PBM E-score
151 | AGAGCGCG | 0.0848
152 | CCCTATTA | -0.197
153 | ACAGGGTG | -0.25
154 | ATCTCAAC | 0.105
155 | CAGGCCAA | -0.146
156 | CATCGAAA | 0.0838
157 | ACTCGATA | 0.138
158 | AATGTCGG | 0.14
159 | CCCCTATA | -0.212
160 | AATACGCG | 0.17
161 | TATCATCA | -0.00465
162 | GTCAACTA | -0.244
163 | GGCGTTAA | -0.0419
164 | ACAGCGGT | -0.208
165 | ATCACGGA | 0.0454
166 | CCGTGTCG | 0.127
167 | ACAGAGCC | -0.232
168 | CACCAATC | -0.176
169 | CTGGCAGA | -0.138
170 | ACGAGTCT | 0.324
171 | CTACGTCA | -0.0319
172 | CACGTTAG | -0.107

From the supplement of paper PMC3334620
